Assay results as given in PubChem BioAssay AID1745853 (National Center for Advancing Translational Sciences (NCATS), 2022).
The list shows a part of the results. The main result of the screen is listed elsewhere. These columns were measured beside it and carry no call.

Legend:
Experiment in all cases: Primary Screen for Target Class Profiling of Small Molecule Inhibitors of Methyltransferases
[1] = target: Glycine N-methyltransferase (Homo sapiens) (UniProt Q14749); details: purified enzyme, MTase-Glo SAH luminescence; measured here: GNMT inhibition; at 40 µM; stronger effect = lower value
Method in brief: (§1)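 Each enzyme was assayed with SAM and its substrate. SAH formation detected by MTase-Glo luminescence; single-point 40 uM screen[…].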

[2] = target: Guanidinoacetate N-methyltransferase (Homo sapiens) (UniProt Q14353); details: purified enzyme, MTase-Glo SAH luminescence; measured here: GAMT inhibition; at 40 µM; stronger effect = lower value
Method in brief: as §1

[3] = target: Histamine N-methyltransferase (Homo sapiens) (UniProt P50135); details: purified enzyme, MTase-Glo SAH luminescence; measured here: HNMT inhibition; at 40 µM; stronger effect = lower value
Method in brief: as §1

[4] = target: Nicotinamide N-methyltransferase (Homo sapiens) (UniProt P40261); details: purified enzyme, MTase-Glo SAH luminescence; measured here: NNMT inhibition; at 40 µM; stronger effect = lower value
Method in brief: as §1

[5] = target: Phenylethanolamine N-methyltransferase (Homo sapiens) (UniProt P11086); details: purified enzyme, MTase-Glo SAH luminescence; measured here: PNMT inhibition; at 40 µM; stronger effect = lower value
Method in brief: as §1
% is set by controls: 0 for no effect and ±100 for the full control effect.

In the case of `COCC(=O)N[C@H]1CC[C@]2(C)CC[C@@H](C(C)C(=O)NC3CC3)[C@H](O)[C@H]2[C@@H]1C` (stereo partly drawn), the activity change, negative = inhibition [1] is reported as -4.41%, the activity change, negative = inhibition [2] is reported as -6.7% and the activity change, negative = inhibition [3] is reported as -2.58%. The activity change, negative = inhibition [4] was -9.49% and the activity change, negative = inhibition [5] was -7.76%.
`CC#CC(=O)N1CCC[C@H]1c1nc(-c2ccc(C(=O)Nc3ccccn3)cc2)c2c(N)nccn12` showed an activity change, negative = inhibition [1] of 0.94%, an activity change, negative = inhibition [2] of 3.98% and an activity change, negative = inhibition [3] of 8.01%. It also gave an activity change, negative = inhibition [4] of -3.75% and an activity change, negative = inhibition [5] of 6.07%.
Compound `N[C@@H](Cc1c[nH]c2ccc(O)cc12)C(=O)O` has an activity change, negative = inhibition [1] of -20.9%, an activity change, negative = inhibition [2] of 4.93% and an activity change, negative = inhibition [3] of -5.2%. The activity change, negative = inhibition [4] was -8.39% and the activity change, negative = inhibition [5] was 5.12%.
With `COc1ccc(C(=O)NC[C@H]2O[C@H](Cc3cc(CN4CCOCC4)on3)CC[C@@H]2O)cc1` the activity change, negative = inhibition [1] was -4.8%, the activity change, negative = inhibition [2] was -10% and the activity change, negative = inhibition [3] was -3.37%. The activity change, negative = inhibition [4] was -11.8% and the activity change, negative = inhibition [5] was -4.26%.
Compound `CCc1ccccc1N1C(=O)c2cc(C(C)(C)C)nn2CC1(C)C(=O)NCCC(C)C` (stereo not drawn) has an activity change, negative = inhibition [1] of 0.002%, an activity change, negative = inhibition [2] of 5.03% and an activity change, negative = inhibition [3] of 1.16%. The activity change, negative = inhibition [4] was -1.71% and the activity change, negative = inhibition [5] was -4.24%.
Work on `Cn1c(=O)c2ccc(C(=O)NC3CCCCC3)cc2n2c(=O)n(CC(=O)NC(C)(C)C)nc12` yielded an activity change, negative = inhibition [1] of 3.74%, an activity change, negative = inhibition [2] of 0.867% and an activity change, negative = inhibition [3] of 5.63%. For the same compound, the activity change, negative = inhibition [4] was 5.38% and the activity change, negative = inhibition [5] was 3.31%.
Compound `Cn1c(=O)c2ccc(C(=O)NC3CCCC3)cc2n2c(SCC(=O)NC3CCCC3)nnc12` has an activity change, negative = inhibition [1] of -1.04%, an activity change, negative = inhibition [2] of 4.38% and an activity change, negative = inhibition [3] of 4.91%. The activity change, negative = inhibition [4] was 1.22% and the activity change, negative = inhibition [5] was -1%.
In the case of `CC(C)Cn1c(=O)c2ccc(C(=O)NC(C)C)cc2n2c(=O)n(CC(=O)NC3CCCC3)nc12`, the activity change, negative = inhibition [1] is reported as 0.912%, the activity change, negative = inhibition [2] is reported as 1.5% and the activity change, negative = inhibition [3] is reported as 3.95%. It also gave an activity change, negative = inhibition [4] of -12.2% and an activity change, negative = inhibition [5] of -3.58%.
`CC(C)n1nc(-c2ccc3oc(N)nc3c2)c2c(N)ncnc21` showed an activity change, negative = inhibition [1] of 1.56%, an activity change, negative = inhibition [2] of 1.76% and an activity change, negative = inhibition [3] of 7.05%. It also gave an activity change, negative = inhibition [4] of -15.5% and an activity change, negative = inhibition [5] of -9.32%.
`CCOc1ccccc1-c1noc(-c2nc(C)no2)n1` showed an activity change, negative = inhibition [1] of 0.014%, an activity change, negative = inhibition [2] of -1.46% and an activity change, negative = inhibition [3] of 1.78%. For the same compound, the activity change, negative = inhibition [4] was -1.75% and the activity change, negative = inhibition [5] was 12.6%.
`CC1(C(=O)NCc2ccc(Cl)cc2)Cn2c(ccc2-c2ccco2)C(=O)N1Cc1ccccc1F` (stereo not drawn) was tested, and the activity change, negative = inhibition [1] was -5.7%, the activity change, negative = inhibition [2] was 0% and the activity change, negative = inhibition [3] was 4.74%. For the same compound, the activity change, negative = inhibition [4] was -14% and the activity change, negative = inhibition [5] was -9.41%.
`O=S(=O)(NCc1nc(-c2ccccc2Cl)no1)c1ccccc1` was tested, and the activity change, negative = inhibition [1] was -3.94%, the activity change, negative = inhibition [2] was 5.84% and the activity change, negative = inhibition [3] was -0.611%. It also gave an activity change, negative = inhibition [4] of -4.52% and an activity change, negative = inhibition [5] of -6.11%.
Work on `Cc1ccc(C)c(C(=O)Cn2nc3n(CCc4ccccc4)c(=O)c4ccccc4n3c2=O)c1` yielded an activity change, negative = inhibition [1] of 0.76%, an activity change, negative = inhibition [2] of 3.24% and an activity change, negative = inhibition [3] of 3.31%. The activity change, negative = inhibition [4] was -1.8% and the activity change, negative = inhibition [5] was -1.25%.
Work on `NC(=O)[C@H](O[C@@H]1O[C@H](CO)[C@@H](O)[C@H](O)[C@H]1O)c1ccccc1` yielded an activity change, negative = inhibition [1] of 5.65%, an activity change, negative = inhibition [2] of 5.55% and an activity change, negative = inhibition [3] of 9.87%. For the same compound, the activity change, negative = inhibition [4] was -3.6% and the activity change, negative = inhibition [5] was 4.56%.
`CC(C)(C)Oc1ccc(OCC2Cc3ccccc3CN2C(=O)c2cccc3ccccc23)cc1` (stereo not drawn) gave an activity change, negative = inhibition [1] of -7.63%, an activity change, negative = inhibition [2] of -27.4% and an activity change, negative = inhibition [3] of -0.405%. It also gave an activity change, negative = inhibition [4] of -31.7% and an activity change, negative = inhibition [5] of -10.5%.
`O=C(O)c1cc(C(F)(F)F)ccc1N1CC[C@H](OCc2ccccn2)C1` showed an activity change, negative = inhibition [1] of -4.43%, an activity change, negative = inhibition [2] of -14.9% and an activity change, negative = inhibition [3] of 1.02%. For the same compound, the activity change, negative = inhibition [4] was -21.7% and the activity change, negative = inhibition [5] was -13.6%.
`Cc1cc2c(cc3n2CC(C)(C(=O)NC2CCCCCCC2)N(Cc2ccc(Cl)cc2)C3=O)o1` (stereo not drawn) showed an activity change, negative = inhibition [1] of -4.75%, an activity change, negative = inhibition [2] of 0% and an activity change, negative = inhibition [3] of 4.4%. For the same compound, the activity change, negative = inhibition [4] was -15% and the activity change, negative = inhibition [5] was -6.64%.
In the case of `O=C1c2cnc(-c3ccsc3)nc2OCCN1CC1CC1`, the activity change, negative = inhibition [1] is reported as -6.47%, the activity change, negative = inhibition [2] is reported as -8.29% and the activity change, negative = inhibition [3] is reported as -4.73%. The activity change, negative = inhibition [4] was -14.8% and the activity change, negative = inhibition [5] was -12.9%.
`O=C1COCC2(CN(c3ccc(C(F)(F)F)cn3)C2)CN1c1ccccc1F` gave an activity change, negative = inhibition [1] of -8.41%, an activity change, negative = inhibition [2] of -7.56% and an activity change, negative = inhibition [3] of -0.584%. For the same compound, the activity change, negative = inhibition [4] was -16.7% and the activity change, negative = inhibition [5] was -1.59%.
In the case of `CC(C)(C)c1cc2n(n1)CC(C)(C(=O)NC1CCCCC1)N(Cc1cccc(F)c1)C2=O` (stereo not drawn), the activity change, negative = inhibition [1] is reported as 2.05%, the activity change, negative = inhibition [2] is reported as 3.68% and the activity change, negative = inhibition [3] is reported as 7.42%. The activity change, negative = inhibition [4] was -0.417% and the activity change, negative = inhibition [5] was 2.66%.
For `COc1cccc(N2C(=O)NC(=NC3CCCCC3)C23CCN(CC2CC2)C3)c1` (stereo not drawn), the activity change, negative = inhibition [1] was -1.98%, the activity change, negative = inhibition [2] was 1.29% and the activity change, negative = inhibition [3] was 1.74%. For the same compound, the activity change, negative = inhibition [4] was -3.16% and the activity change, negative = inhibition [5] was 0.364%.
With `C[N+](C)(C)CCCCCCCCCC[N+](C)(C)C` the activity change, negative = inhibition [1] was -4.07%, the activity change, negative = inhibition [2] was 5.65% and the activity change, negative = inhibition [3] was -4.18%. The activity change, negative = inhibition [4] was -5.82% and the activity change, negative = inhibition [5] was 8.13%.
`CC(=O)O[C@]1(C(C)=O)CC[C@H]2[C@@H]3CCC4=CC(=O)CCC4=C3[C@@H](c3ccc(N(C)C)cc3)C[C@@]21C` gave an activity change, negative = inhibition [1] of -4.96%, an activity change, negative = inhibition [2] of -8.29% and an activity change, negative = inhibition [3] of 0.816%. For the same compound, the activity change, negative = inhibition [4] was -34.6% and the activity change, negative = inhibition [5] was -14.8%.
Work on `Cc1ccc(-c2nc(NCc3ccncc3)ncc2C(=O)O)cc1` yielded an activity change, negative = inhibition [1] of -5.45%, an activity change, negative = inhibition [2] of -4.71% and an activity change, negative = inhibition [3] of -0.38%. For the same compound, the activity change, negative = inhibition [4] was -4.4% and the activity change, negative = inhibition [5] was -1.36%.
`O=C(O)/C(=C/c1c(C(=O)O)[nH]c2cc(Cl)cc(Cl)c12)c1ccccc1` showed an activity change, negative = inhibition [1] of -10.9%, an activity change, negative = inhibition [2] of 11.8% and an activity change, negative = inhibition [3] of 13.7%. It also gave an activity change, negative = inhibition [4] of -8.09% and an activity change, negative = inhibition [5] of -0.691%.
With `COc1ccccc1NC(=O)Nc1ccc2ccccc2c1` the activity change, negative = inhibition [1] was -9.65%, the activity change, negative = inhibition [2] was -18.1% and the activity change, negative = inhibition [3] was 4.66%. For the same compound, the activity change, negative = inhibition [4] was -30.4% and the activity change, negative = inhibition [5] was -4.71%.
With `CCOC(=O)C1CCCN(S(=O)(=O)c2ccc3[nH]c(=O)[nH]c3c2)C1` (stereo not drawn) the activity change, negative = inhibition [1] was -0.009%, the activity change, negative = inhibition [2] was 0% and the activity change, negative = inhibition [3] was -1.76%. The activity change, negative = inhibition [4] was -10.2% and the activity change, negative = inhibition [5] was -42.9%.
Compound `N#Cc1ccc(OCC2CN(Cc3cccc(C(F)(F)F)c3)C(=O)c3c(ccnc3-c3ccc(OCC(=O)O)cc3)O2)cc1` (stereo not drawn) has an activity change, negative = inhibition [1] of -11.1%, an activity change, negative = inhibition [2] of -2.51% and an activity change, negative = inhibition [3] of -1.15%. For the same compound, the activity change, negative = inhibition [4] was -6.54% and the activity change, negative = inhibition [5] was 4.64%.
`CN(CCCNC(=O)CCc1nnc2n(Cc3ccccc3)c(=O)c3ccccc3n12)Cc1ccccc1` gave an activity change, negative = inhibition [1] of -14.3%, an activity change, negative = inhibition [2] of 4.24% and an activity change, negative = inhibition [3] of -41.5%. The activity change, negative = inhibition [4] was -9.41% and the activity change, negative = inhibition [5] was -4.21%.
`Fc1ccc(N2CCN(c3nc4ccccc4c4nc(-c5cccnc5)nn34)CC2)cc1` was tested, and the activity change, negative = inhibition [2] was -4.78%, the activity change, negative = inhibition [4] was -7.7% and the activity change, negative = inhibition [5] was 4.46%.
Compound `CCCCC1CCN(CCCC(=O)c2ccccc2C)CC1` has an activity change, negative = inhibition [1] of -3.94%, an activity change, negative = inhibition [2] of 11.9% and an activity change, negative = inhibition [3] of -13.1%. For the same compound, the activity change, negative = inhibition [4] was -9.99% and the activity change, negative = inhibition [5] was -11.4%.
